# Experimental data from PubChem BioAssay AID488969 (Vanderbilt High Throughput Screening Facility, 2010).
# Whole data set: some 110,000 compounds, median “z-score” near -0.1, cut for the highest 2% near 2. The list shows a part of the results. Active and inactive are the calls of the source.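 The calls were made as follows: active = z-score in the third read window above 3 or below -3; inactive = the rest.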
# Biological target: Metabotropic glutamate receptor 8 (Rattus norvegicus) (UniProt P70579)
# Test: mGluR8 Gi/Go-coupled signaling modulation – cell-based, rat, thallium flux, HTS, primary screen (AID 488969)
# Details: HEK293 rat mGluR8, GIRK (G protein-gated inwardly rectifying potassium channel) thallium flux, FluoZin2; at 10 µM; stronger effect = higher value; submaximal glutamate (EC20) added with thallium
# Sequence of UniProt P70579 (P70579 whole entry, looked up): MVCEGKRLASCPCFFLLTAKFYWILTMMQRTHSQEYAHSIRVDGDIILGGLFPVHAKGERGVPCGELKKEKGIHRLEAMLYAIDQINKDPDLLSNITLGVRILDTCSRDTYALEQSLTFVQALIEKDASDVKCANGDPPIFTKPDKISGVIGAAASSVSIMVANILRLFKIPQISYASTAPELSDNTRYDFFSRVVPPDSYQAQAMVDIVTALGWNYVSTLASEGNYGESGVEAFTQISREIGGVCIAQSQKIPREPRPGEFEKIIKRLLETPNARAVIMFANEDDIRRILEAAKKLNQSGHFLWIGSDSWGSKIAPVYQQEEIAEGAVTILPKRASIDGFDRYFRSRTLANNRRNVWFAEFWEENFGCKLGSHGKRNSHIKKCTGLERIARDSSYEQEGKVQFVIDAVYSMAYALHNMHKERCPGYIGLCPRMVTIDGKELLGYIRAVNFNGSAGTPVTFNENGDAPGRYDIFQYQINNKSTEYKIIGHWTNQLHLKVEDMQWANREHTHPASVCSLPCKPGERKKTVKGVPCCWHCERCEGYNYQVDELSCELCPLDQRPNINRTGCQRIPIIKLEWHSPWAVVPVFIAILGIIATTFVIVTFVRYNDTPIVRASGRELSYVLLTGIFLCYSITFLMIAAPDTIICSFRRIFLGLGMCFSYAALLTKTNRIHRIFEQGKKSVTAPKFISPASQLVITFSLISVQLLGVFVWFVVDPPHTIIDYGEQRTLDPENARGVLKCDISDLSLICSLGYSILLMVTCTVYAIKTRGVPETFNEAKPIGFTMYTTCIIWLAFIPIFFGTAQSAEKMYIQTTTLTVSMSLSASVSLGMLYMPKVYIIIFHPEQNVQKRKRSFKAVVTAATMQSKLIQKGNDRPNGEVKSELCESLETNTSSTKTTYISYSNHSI
row,Structure (SMILES),z-score
1,C/C(=N\NC(=O)OC(C)(C)C)c1cccc([N+](=O)[O-])c1,-0.272
2,C/C(=C\C(=O)OCC(=O)NCc1ccccc1)C(=O)OCC(=O)NCc1ccccc1,0.492
3,C[N+]1(CC2COC3(CCCCC3)O2)CCCC1 (stereo unspecified),-0.214
4,Cc1ccc(N2CS(=O)(=O)/C(=C/N(C)C)C2=O)cc1,0.0229
5,CCc1ccc(C(=O)COC(=O)C(CCSC)NC(=O)c2ccccc2)cc1 (stereo unspecified),-0.144
6,COc1cc(OC)cc(C(=O)NCCn2ccc3ccccc32)c1,0.165
7,Cc1noc(C)c1COC(=O)Cn1c(C)nc2ccccc21,0.194
8,Cc1ccnc(SCC(=O)Nc2sc3c(c2C#N)CCCC3)n1,-0.556
9,O=C(CCCn1c(=S)[nH]c2cc3c(cc2c1=O)OCO3)N1CCN(C2CCCCC2)CC1,-0.008
10,O=S(=O)(c1ccc2ccccc2c1)n1cnc2ccccc21,-0.475
11,Cc1cc(C)nc(/N=C(\N)Nc2ccc(C)c([N+](=O)[O-])c2)n1,-0.413
12,O=C(Cc1ccc2c(c1)CCCC2)Nc1ccccc1Cl,-0.0266
13,COc1ccc(C(=O)c2ccc(Cl)c([N+](=O)[O-])c2)cc1,-0.0778
14,COc1ccccc1NC(=O)C(C)NS(=O)(=O)c1ccccc1 (stereo unspecified),0.359
15,COc1cc(C(C[N+](=O)[O-])c2c(-c3ccccc3)cc3ccccn23)cc(OC)c1OC (stereo unspecified),-1.28
16,CCOc1cc(CNc2ccccc2)cc(Br)c1OCc1ccccc1F,-0.148
17,O=C(CSCc1ccccc1)N/N=C/c1ccc(OCC(=O)N2CCCCC2)cc1,-0.0691
18,O=c1c2ccccc2nc(/C=C/c2ccc([N+](=O)[O-])o2)n1CCCO,0.0808
19,CCCCOC(=O)Nc1ccccc1C(=O)OC,-0.415
20,COC(=O)Cc1c(C)c2ccc(OC(=O)c3ccccc3)cc2oc1=O,0.141
21,O=C1CC(=Nc2ccccc2)NN1c1ccccc1,-0.137
22,COc1ccccc1NC(=O)CSc1nnc(C2CCCCC2)n1C,0.0978
23,CCCN1CCN(CCCNC(=O)C2CCN(c3nnc(-n4cccc4)s3)CC2)CC1,-0.0056
24,FCCCOc1ccc(-c2nccc(-c3ccc(F)cc3)n2)cc1,0.0825

row,Structure (SMILES),z-score
1,NC(=O)C1CC(O)CN1c1nc(CN2CCOCC2)nc2scc(-c3ccccc3)c12 (stereo unspecified),-0.0691
2,O=C(CN(Cc1ccc(F)cc1)C(=O)C1CSC(=O)C1)NC1CCCCC1 (stereo unspecified),0.115
3,CC(NC(=O)C(=O)NN=C1CCCCCCCCCCC1)c1ccccc1 (stereo unspecified),-0.142
4,CC(C(=O)NC1=NCCS1)(C(F)(F)F)C(F)(F)F,-0.0611
5,CCc1nnc(NC(=O)C2Cc3ccccc3CN2S(=O)(=O)c2ccc(C)cc2)s1 (stereo unspecified),0.0333
6,O=C(NN1c2ccccc2CCc2ccccc21)c1ccccc1Br,-0.0618
7,O=C(Nc1ccc(N2CCOCC2)cc1N1CCOCC1)c1ccc([N+](=O)[O-])cc1,-0.957
8,CC(=O)N(C(C)=O)C1=C(C#N)C2(CCCCC2)Cc2ccccc21,-0.305
9,CC(CC(=O)Nc1nc2ccccc2[nH]1)c1ccccc1 (stereo unspecified),-0.0862
10,CCCCC(=O)Nc1cc(NC(=O)CCCC)cc(C(=O)O)c1,-0.119
11,Cc1cc(C(=O)NCCCC(=O)O)c(C)o1,-0.154
12,COc1ccc(C(C(=O)NC2CCCCC2)N(C(=O)CCl)c2ccc(Cl)cc2)cc1 (stereo unspecified),0.0468
13,NCCCCCc1nnc(SCc2ccc(Cl)cc2Cl)o1,2.74
14,Cc1ccc(NS(=O)(=O)c2ccccc2)c2c1CC(C)(C)O2,-0.955
15,Cc1cccc(C)c1N1CCN(S(=O)(=O)N2CCOCC2)CC1,-0.017
16,COc1cc(C(=O)N2CCN(S(=O)(=O)c3ccc(C)cc3)CC2)ccc1OCc1c(C)noc1C,-0.897
17,N#CN=C1SCCS1,0.264
18,O=C(Nc1nncs1)c1cccc(S(=O)(=O)N2CCCC2)c1,-0.0624
19,O=C(CCCCCCCC(=O)NCC1CCCO1)NCC1CCCO1 (stereo unspecified),0.434
20,COc1ccc(CCN2CC(O)=C(c3nc(C)cs3)C2=N)cc1OC,-0.00316
21,Cc1nn(-c2cc(N3CCOCC3)ccc2N)c(=O)c2ccccc12,-0.0334
22,C=CCOc1ccc(CNc2nccs2)cc1OCC,-0.313
23,N#CC1=C(N)NC(SCc2ccc(Cl)cc2)=C(C#N)C12CCCCC2,0.116
24,CC(C)(C)c1cc(C(=O)Nc2ccccc2)ccn1,-2.42

row,Structure (SMILES),z-score
1,Cc1nn2c(NCCCN3CCOCC3)c3c(nc2c1-c1ccccc1)CCC3,-0.0116
2,CC(C)(C)NS(=O)(=O)c1ccc(CCC(=O)NCc2cccnc2)cc1,-0.0966
3,COCCn1c(=O)[nH]c2cc(C(=O)NCCN3CCN(c4ccc(OC)cc4)CC3)ccc2c1=O,0.553
4,CCC(C)(C)NC(=O)C(c1ccccc1F)N(Cc1ccco1)C(=O)Cn1nnc2ccccc21 (stereo unspecified),-0.164
5,COc1ccccc1N(CC(=O)NC1CCCCC1)S(C)(=O)=O,0.923
6,O=[N+]([O-])c1ccc(-c2cn(-c3ccccc3)c(=S)[nH]2)cc1,-0.00967
7,Nc1c(C(=O)NCc2ccco2)sc2nc(N3CCOCC3)c3c(c12)CCCC3,-1.31
8,Cc1cc(C)c(S(=O)(=O)Nc2ccc(O)cc2)c(C)c1,-0.0972
9,COc1ccc(-c2nc(NC(=O)C3CC(=O)N(c4ccc5c(c4)OCCO5)C3)sc2C)cc1 (stereo unspecified),-0.283
10,CCCN(CC1CC1)C(=O)COc1ccccc1C(=O)NCc1ccccc1,-1.23
11,CC(C)CC1C(C#N)=C(N)Oc2n[nH]c(-c3ccccc3)c21 (stereo unspecified),-1.54
12,CCNc1nc(NC(C)C)nc(N(C#N)C(C)C(=O)N(C)C)n1 (stereo unspecified),-0.195
13,O=[N+]([O-])c1cc(/C=N/N2CCN(c3ccccc3)CC2)ccc1Cl,2.02
14,CC(C)CNC(=O)NC(=O)CSc1nc2ccccc2n1CC(C)C,-0.276
15,C=CCN(CC=C)C(=S)NC(=O)c1ccc(-c2ccccc2)cc1,active: 11.4
16,COc1ccc(Cn2nnnc2CN2CCc3ccccc3C2)cc1,-0.0372
17,Cc1ccccc1OCC(=O)Nc1cccc(NC(=O)c2ccco2)c1,-0.387
18,O=C(Nc1ccc([N+](=O)[O-])cn1)C1CCCCC1,-0.376
19,CCOc1ccc(S(=O)(=O)NCCSc2ccccc2)cc1,0.0941
20,COc1cccc(Nc2nc(-c3cccs3)nc3ccccc23)c1,-0.218
21,Cc1oc2cc3c(C(=O)N4CCN(c5ccccc5)CC4)c(C)oc3cc2c1C(=O)N1CCN(c2ccccc2)CC1,-0.413
22,C=CCNC(=O)c1ccc(CNS(=O)(=O)c2ccc(NC(C)=O)cc2)cc1,0.123
23,c1ccc(OCCOCCN2CCc3ccccc3C2)cc1,-0.0733
